Measured values: the BET-seq Pho4 binding data (Le et al. 2018)
This is one part of the list. Values were computed here from the reads of four pooled replicates and scatter widely.

biological target: T1, Pho4 (S. cerevisiae) (UniProt P07270); experiment: relative binding free energy (BET-seq); higher = weaker binding; settings: reference: library average
T1 sequence: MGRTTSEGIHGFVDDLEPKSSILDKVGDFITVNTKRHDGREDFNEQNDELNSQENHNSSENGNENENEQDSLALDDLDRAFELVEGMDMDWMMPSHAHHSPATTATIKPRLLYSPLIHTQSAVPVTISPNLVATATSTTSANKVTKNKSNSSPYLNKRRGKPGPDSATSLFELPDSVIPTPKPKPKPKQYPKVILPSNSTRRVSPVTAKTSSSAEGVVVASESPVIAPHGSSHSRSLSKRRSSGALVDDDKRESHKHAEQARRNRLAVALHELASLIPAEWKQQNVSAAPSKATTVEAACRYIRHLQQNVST

| Sequence | relative binding free energy |
| --- | --- |
| GTGTACACGTGTAGTG | 0.13 kcal/mol |
| GGGGACACGTGGAGTG | 0.13 kcal/mol |
| GTTTTCACGTGACGTT | 0.42 kcal/mol |
| TTGTCCACGTGAGAGT | 0.17 kcal/mol |
| AGTCGCACGTGGGAGA | -0.17 kcal/mol |
| TGATTCACGTGGACGT | 0.26 kcal/mol |
| ATTATCACGTGATATA | 0.18 kcal/mol |
| TGTTTCACGTGATCGG | 0.25 kcal/mol |
| AGAGACACGTGGTGTT | 0.06 kcal/mol |
| TAGTTCACGTGTTTCA | 0.25 kcal/mol |
| ATGTACACGTGAGGTG | 0.38 kcal/mol |
| TGGGACACGTGGAATG | 0.06 kcal/mol |
| CGTTTCACGTGGCTTT | 0.27 kcal/mol |
| TAAATCACGTGTAGGT | 0.03 kcal/mol |
| GGTCACACGTGTGCGT | 0.05 kcal/mol |
| TGTAACACGTGTAAGT | 0.05 kcal/mol |
| AGTAGCACGTGTTATG | -0.01 kcal/mol |
| AGGTTCACGTGCGTTA | 0.12 kcal/mol |
| TGTTGCACGTGATTTC | 0.1 kcal/mol |
| AGGTGCACGTGGTATA | -0.12 kcal/mol |
| GGGGCCACGTGGATTG | 0.09 kcal/mol |
| TGTTTCACGTGCTGAT | 0.25 kcal/mol |
| GGTGCCACGTGGGCCG | -0.3 kcal/mol |
| ATGTTCACGTGTTTAT | 0.19 kcal/mol |
| AAAAACACGTGGTTGG | -0.07 kcal/mol |

| Sequence | relative binding free energy |
| --- | --- |
| TATTGCACGTGCGGAA | -0.11 kcal/mol |
| CGTTACACGTGATATG | 0.17 kcal/mol |
| GTAAGCACGTGGTCTG | -0.23 kcal/mol |
| GTTTACACGTGGATTT | 0.31 kcal/mol |
| TGGAACACGTGGTTGA | 0 kcal/mol |
| ATGACCACGTGGTGGT | -0.17 kcal/mol |
| GAGTCCACGTGGGGCG | -0.05 kcal/mol |
| TAGTTCACGTGGTTAT | 0.28 kcal/mol |
| GGATGCACGTGAGCGT | 0.2 kcal/mol |
| TTCGGCACGTGTAAGG | -0.02 kcal/mol |
| TGTGCCACGTGGGGAT | -0.15 kcal/mol |
| TCTCGCACGTGGGGGG | -0.19 kcal/mol |
| ATTGTCACGTGTAGAC | 0.07 kcal/mol |
| GGGGGCACGTGTAGGC | 0.02 kcal/mol |
| GTCTTCACGTGGCGGG | 0.19 kcal/mol |
| ATGTGCACGTGTCGAT | -0.02 kcal/mol |
| GCGAACACGTGGTGGT | 0.02 kcal/mol |
| GCGTACACGTGAGGTT | 0.3 kcal/mol |
| GTTAGCACGTGAGAAG | 0.22 kcal/mol |
| GTGCGCACGTGCAGGT | -0.23 kcal/mol |
| TGCACCACGTGGGGGA | -0.22 kcal/mol |
| GGTACCACGTGGAGTG | -0.05 kcal/mol |
| GGAACCACGTGGGTGT | -0.16 kcal/mol |
| GGTAGCACGTGGGTTT | -0.01 kcal/mol |
| CGGGTCACGTGTAAAG | 0.29 kcal/mol |

| Sequence | relative binding free energy |
| --- | --- |
| TAACTCACGTGGGGGG | 0.01 kcal/mol |
| GGGGACACGTGTGTGT | 0.14 kcal/mol |
| CGTAGCACGTGTTGGT | -0.11 kcal/mol |
| AGGTTCACGTGCTAGG | 0.32 kcal/mol |
| CATGTCACGTGATGGT | 0.06 kcal/mol |
| AGTGCCACGTGTTGGG | -0.13 kcal/mol |
| CTCTGCACGTGTATGT | 0.02 kcal/mol |
| TGAGTCACGTGAGAGG | 0.37 kcal/mol |
| TCATGCACGTGTGTAA | 0.04 kcal/mol |
| ATTGGCACGTGAAAGT | 0.11 kcal/mol |
| TGGCACACGTGTAGTG | 0.13 kcal/mol |
| CTAATCACGTGTAGGT | 0.18 kcal/mol |
| TGAGGCACGTGGATCG | -0.1 kcal/mol |
| TGGGTCACGTGTAAGT | 0.13 kcal/mol |
| AGGGTCACGTGGCCTT | -0.07 kcal/mol |
| CTGGACACGTGAAGGG | 0.32 kcal/mol |
| TCGTGCACGTGGTTGT | -0.1 kcal/mol |
| GGCTTCACGTGGTTTA | 0.3 kcal/mol |
| CGTGTCACGTGGGCGC | -0.05 kcal/mol |
| TAACGCACGTGTGGGT | -0.19 kcal/mol |
| GAGCTCACGTGTGGGG | 0.25 kcal/mol |
| GTAGGCACGTGTTATT | -0.02 kcal/mol |
| TGGAGCACGTGTATTG | -0.11 kcal/mol |
| CTTGGCACGTGTAGTA | -0.17 kcal/mol |
| TTTTGCACGTGATATC | 0 kcal/mol |

| Sequence | relative binding free energy |
| --- | --- |
| TTTTCCACGTGGGTAT | 0.01 kcal/mol |
| GATGTCACGTGCATAG | 0.26 kcal/mol |
| TTGTTCACGTGGTCAA | 0.19 kcal/mol |
| TTTCGCACGTGTGTAT | 0.11 kcal/mol |
| TGTAGCACGTGGTACA | -0.12 kcal/mol |
| GATAACACGTGTAGGG | 0.04 kcal/mol |
| GGTTGCACGTGGGAAC | -0.03 kcal/mol |
| TTTAGCACGTGTTGCA | -0.02 kcal/mol |
| GTTATCACGTGACGGT | 0.23 kcal/mol |
| GGCTTCACGTGGGGCA | 0.06 kcal/mol |
| GTTTACACGTGAATAA | 0.53 kcal/mol |
| ATTGGCACGTGTAAGA | 0.19 kcal/mol |
| TGGACCACGTGGGAGG | -0.24 kcal/mol |
| GGATGCACGTGTAGTA | -0.1 kcal/mol |
| TTTTTCACGTGGCGTG | 0.13 kcal/mol |
| TGTAGCACGTGTCATG | -0.15 kcal/mol |
| TGGGACACGTGGGTCC | 0.01 kcal/mol |
| TTAGTCACGTGCGAGT | 0.13 kcal/mol |
| TGCAGCACGTGGGTTT | -0.08 kcal/mol |
| TGGGCCACGTGAGAGT | 0.14 kcal/mol |
| GTTTCCACGTGGGAAG | 0.22 kcal/mol |
| ATGTTCACGTGTAAGG | 0.24 kcal/mol |
| TCTTTCACGTGCAGGG | 0.29 kcal/mol |
| TCGGTCACGTGTGTAT | 0.17 kcal/mol |
| GTTGGCACGTGAACAT | 0.19 kcal/mol |

| Sequence | relative binding free energy |
| --- | --- |
| AGGCGCACGTGCCGGG | -0.18 kcal/mol |
| ATATTCACGTGGCTTT | 0.08 kcal/mol |
| CATTTCACGTGGGTGA | 0.07 kcal/mol |
| GGGGTCACGTGAGGTA | 0.29 kcal/mol |
| GCTTTCACGTGGTATT | 0.43 kcal/mol |
| GAGGGCACGTGTCATG | -0.09 kcal/mol |
| CGAGGCACGTGGGAGG | -0.07 kcal/mol |
| TTATTCACGTGATAGG | 0.33 kcal/mol |
| AGTTGCACGTGCCGGG | -0.13 kcal/mol |
| TGATTCACGTGGTGAT | 0.26 kcal/mol |
| ATTTGCACGTGCTGTT | -0.04 kcal/mol |
| AGGAACACGTGGTTCT | 0.09 kcal/mol |
| ATCGGCACGTGAGTGT | 0.27 kcal/mol |
| TGATGCACGTGTTGCA | 0.01 kcal/mol |
| GTCGGCACGTGCTGTG | -0.05 kcal/mol |
| GTGGGCACGTGCGGTG | -0.04 kcal/mol |
| TTGGGCACGTGATAGT | 0.03 kcal/mol |
| GGAAGCACGTGGTTTG | -0.05 kcal/mol |
| GGTCTCACGTGGGTTG | 0.04 kcal/mol |
| CTGGGCACGTGTCGGG | -0.01 kcal/mol |
| TTTGACACGTGCGGGT | 0.04 kcal/mol |
| TACGGCACGTGTAGTT | 0.07 kcal/mol |
| GTGATCACGTGATTAT | 0.3 kcal/mol |
| TTTATCACGTGATCGT | 0.21 kcal/mol |
| AGCAGCACGTGTGAGG | -0.05 kcal/mol |

| Sequence | relative binding free energy |
| --- | --- |
| GCTAGCACGTGTTGGA | 0.07 kcal/mol |
| AAAGGCACGTGAAGAA | 0.38 kcal/mol |
| GGTTTCACGTGTTTGC | 0.34 kcal/mol |
| TAATGCACGTGTTATA | -0.17 kcal/mol |
| GTAGTCACGTGCAGTT | 0.02 kcal/mol |
| GATTCCACGTGTGGTA | 0.24 kcal/mol |
| TACTTCACGTGGAGGT | 0.17 kcal/mol |
| TGCTGCACGTGGGGGG | -0.17 kcal/mol |
| TAATTCACGTGGTTAG | 0.29 kcal/mol |
| TAGGGCACGTGACGCT | 0.1 kcal/mol |
| GTGGCCACGTGTGAGG | 0.02 kcal/mol |
| GTGTTCACGTGCTTAG | 0.15 kcal/mol |
| TACAGCACGTGAGGTT | 0.21 kcal/mol |
| CGGTTCACGTGAAGTT | 0.49 kcal/mol |
| TGTATCACGTGGGAGC | 0.1 kcal/mol |
| GTAGGCACGTGGAAAT | 0.03 kcal/mol |
| TGAAGCACGTGATGAG | -0.04 kcal/mol |
| ATGATCACGTGTGTTG | 0.08 kcal/mol |
| TATGTCACGTGAGGTG | 0.24 kcal/mol |
| GGGAACACGTGGGCCG | -0.02 kcal/mol |
| AGAGTCACGTGTTGCG | 0.03 kcal/mol |
